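Results reflect a 48-hour exposure of cells in 96-well plates to compound at five concentrations. GI50: concentration for 50% inhibition of growth.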 The source holds more than one record for some entries. They are shown here; other results are not. There may be further records. For some assays here: The tests behind the records often covered other concentration ranges, which the source does not state; some values may only mark the edge of a range. For some assays here: The values listed for one entry repeat one measurement across runs, samples, wells, individuals or studies. Marks in square brackets tell the records apart. A, B and so on number the origins entry by entry.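 TGI marks complete inhibition of growth.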
Experiments:
Assay in all cases: NCI tumour cell line growth inhibition, 48 h
[1] = test system: A549 NSCLC
[2] = test system: EKVX NSCLC
[3] = test system: OVCAR-5 ovarian
[4] = test system: SW-620 colon
[5] = test system: HOP-62 NSCLC
[6] = test system: KM12 colon
[7] = test system: OVCAR-4 ovarian
[8] = test system: SN12C renal
[9] = test system: SF-295 CNS
[10] = test system: HCT-15 colon
[11] = test system: M14 melanoma
[12] = test system: SK-MEL-5 melanoma
[13] = test system: HL-60(TB) leukemia
[14] = test system: UACC-62 melanoma
[15] = test system: SK-MEL-2 melanoma
[16] = test system: COLO 205 colon
[17] = test system: UACC-257 melanoma
[18] = test system: U251 CNS
[19] = test system: NCI-H226 lung
[20] = test system: NCI-H23 lung
[21] = test system: CAKI-1 renal
[22] = test system: HCC-2998 colon
[23] = test system: MALME-3M melanoma
[24] = test system: SK-OV-3 ovarian
[25] = test system: BT-549 breast
[26] = test system: NCI/ADR-RES ovarian
[27] = test system: 786-0 renal
[28] = test system: HOP-92 NSCLC
[29] = test system: NCI-H522 lung
[30] = test system: NCI-H460 lung
[31] = test system: HT29 colon
[32] = test system: IGROV1 ovarian
[33] = test system: CCRF-CEM leukemia
[34] = test system: MCF7 breast
[35] = test system: SR leukemia
[36] = test system: RPMI-8226 leukemia
[37] = test system: LOX IMVI melanoma
[38] = test system: MDA-MB-231 breast
[39] = test system: UO-31 renal
[40] = test system: SF-268 CNS
[41] = test system: MOLT-4 leukemia
[42] = test system: OVCAR-8 ovarian
[43] = test system: PC-3 prostate

SMILES: S=P(N1CC1)(N1CC1)N1CC1
- TGI [1]: 45.2 µM, 286 µM, 573 µM
- TGI [2]: 35.7 µM, 597 µM, 701 µM
- TGI [3]: 50.7 µM, 385 µM, 705 µM
- TGI [4]: 58.9 µM, 667 µM, 739 µM
- TGI [5]: 20.6 µM, 219 µM, 673 µM
- TGI [6]: 62.2 µM, 424 µM, 663 µM
- TGI [7]: 44.3 µM, 439 µM, 543 µM
- TGI [8]: 72.9 µM, 484 µM, 891 µM
- TGI [9]: 45.7 µM, 334 µM, 555 µM
- TGI [10]: 37.4 µM, 534 µM, 455 µM
- TGI [11]: 33 µM, 318 µM, 708 µM
- TGI [12]: 36.2 µM, 241 µM, 367 µM
- TGI [13]: 40.4 µM, 379 µM, 31.7 µM
- TGI [14]: 24.2 µM, 149 µM, 396 µM
- TGI [15]: 47.5 µM, 440 µM, 734 µM
- TGI [16]: 42.7 µM, 353 µM, 591 µM
- TGI [17]: 60 µM, 394 µM, 616 µM
- TGI [18]: 41.3 µM, 262 µM, 547 µM
- TGI [19]: 37.9 µM, 342 µM, 561 µM
- TGI [20]: 24.7 µM, 237 µM, 526 µM
- TGI [21]: 72.4 µM, 432 µM, 838 µM
- TGI [22]: 37.2 µM, 252 µM, 395 µM
- TGI [23]: 29.2 µM, 326 µM, 590 µM

SMILES: COc1ccc2c(c1)C(=O)c1c-2n(CCCI)c(=O)c2cc([N+](=O)[O-])ccc12
- TGI [24]: 2.56 µM and > 100 µM
- GI50 [3]: 288 nM and 3.66 µM
- TGI [25]: 397 nM and 15.2 µM
- TGI [26]: 3.04 µM and > 100 µM
- TGI [27]: 298 nM and 12.7 µM
- TGI [8]: 2.17 µM and > 100 µM
- TGI [28]: 1.12 µM and 27.5 µM
- GI50 [29]: 413 nM and 6.23 µM
- TGI [30]: 374 nM and 10.2 µM
- TGI [31]: 2.21 µM and > 100 µM
- GI50 [32]: 8.86 µM and 399 nM
- TGI [33]: 193 nM and 11.1 µM
- TGI [34]: 338 nM and > 100 µM

SMILES: Cc1cn(-c2cc(NC(=O)c3ccc(C)c(Nc4nccc(-c5cccnc5)n4)c3)cc(C(F)(F)F)c2)cn1
- GI50 [28]: > 100 µM [sample A, 1 test] and 3.08 µM [sample B, 1 test]
- GI50 [13]: 1.18 µM [sample A, mean of 2 tests] and 3.19 nM [sample B, 1 test]
- TGI [13]: 19.7 µM [sample A, mean of 2 tests] and 1.49 µM [sample B, 1 test]
- GI50 [22]: 947 nM [sample A, mean of 2 tests] and > 10 µM [sample B, 1 test]

SMILES: COC(=O)[C@@H](C)C[C@H](Cc1ccccc1)NC(=O)c1csc([C@@H](C[C@H](C(C)C)N(C)C(=O)[C@@H](NC(=O)[C@H]2CCCCN2C)C2CC2)OC(C)=O)n1
- GI50 [28]: 0.319 nM and 9.05 µM
- GI50 [12]: 0.146 nM and 1.65 nM
- GI50 [14]: 0.141 nM and 1.65 nM
- GI50 [34]: 0.0442 nM and 1.65 nM
- GI50 [35]: 0.0985 nM and 1.65 nM

SMILES: C/C(=C\c1csc(C)n1)[C@@H]1C[C@@H]2O[C@]2(C)CCC[C@H](C)[C@H](O)[C@@H](C)C(=O)C(C)(C)[C@@H](O)CC(=O)O1
- TGI [24]: < 0.1 nM and 50 µM
- TGI [36]: 0.119 nM and > 100 µM
- TGI [25]: 808 nM and > 100 µM
- TGI [26]: 0.112 nM and 10.6 nM
- TGI [37]: 0.219 nM and > 100 µM
- TGI [11]: 4.38 nM and 23.4 µM
- TGI [12]: < 0.1 nM and 13 µM
- TGI [14]: 5.61 nM and 56.3 µM
- TGI [17]: 812 nM and > 100 µM
- TGI [38]: < 0.1 nM and > 100 µM
- TGI [39]: 1.62 nM and > 100 µM
- TGI [40]: 266 nM and > 100 µM
- TGI [19]: 0.772 nM and 678 nM
- TGI [41]: 272 nM and > 100 µM
- TGI [21]: 151 nM and > 100 µM
- TGI [42]: < 0.1 nM and > 100 µM

SMILES: CC(=O)Nc1ccc(/C=C/C(=O)N2CC(CCl)c3c2cc(N)c2ccccc32)cc1 (stereo not given)
- TGI [1]: 13.3 nM and 272 nM
- TGI [3]: 227 nM and 2.32 µM
- TGI [43]: 53.1 nM and > 100 µM
- TGI [38]: 98.2 nM and 1.55 µM

— PubChem BioAssay (NCI)
